# Out of some 52,000 compounds screened, about 1,700 (3.3%) were called active. Cut-off read from the data, not from the text of the source: active = survival mostly below about 52% (no sharp cut-off); inactive = mostly above about 56%. The list shows a part of the results.
# Test system: Wild type
# Experiment: S. aureus survival, RN4220 and DeltatarO strains – OD600, teichoic acid synthesis inhibitors, primary screen (AID 463173)
# Conditions: S. aureus RN4220 wild type/DeltatarO growth, OD600, 18 h, stronger effect = lower value, screened at 18.75 µg/mL (by protocol)
row,Compound,survival
1,CCOc1ccc(-c2nonc2NC(=O)c2oc3ccc(Br)cc3c2C)cc1,inactive: 75%
2,O=C(CSc1nnc(-c2ccccc2)c(-c2ccccc2)n1)NC1CCCCC1,inactive: 94%
3,COc1ccc2c(c1)CCc1c(C(=O)Nc3ccc(F)c(Cl)c3)noc1-2,inactive: 83%
4,CCc1nc2ccc(C(=O)N3CCN(c4ccccc4)CC3)cc2nc1CC,inactive: 132%
5,COC(=O)c1nnn(CC(=O)NC(=O)Nc2cccc(C)c2C)c1C(=O)OC,inactive: 78%
6,COc1ccc(S(=O)(=O)N(CCc2ccccc2)CC(=O)Nc2ccc(C)c(C)c2)cc1OC,inactive: 71%
7,CCC(=O)Nc1nnc(SCc2cc(=O)c3cc(C)ccc3[nH]2)s1,inactive: 73%
8,CCOc1cc(-c2nnc(SCC(=O)Nc3ccc(F)c(F)c3)nc2-c2ccc(OC)c(OCC)c2)ccc1OC,inactive: 72%
9,O=C(c1ccccc1Cl)n1cc(Cl)cn1,inactive: 100%
10,O=C(Nc1cccc(-c2nc3ccccc3o2)c1)c1ccc(-c2ccc(Br)cc2)o1,inactive: 57%
11,Cc1csc(-c2cc3ccccc3oc2=O)n1,inactive: 111%
12,COc1ccc(CNc2oc(C)nc2C#N)cc1,inactive: 99%
13,COc1ccc(C(C(=O)NC2CCCC2)N(Cc2ccco2)C(=O)Cn2nc(C(F)(F)F)c3c2CCCC3)cc1 (stereo not given),inactive: 111%
14,O=S(=O)(Nc1ccc(-c2ccc(N3CCCC3)nn2)cc1)c1ccc(Cl)cc1,inactive: 73%
15,Cc1c(C(=O)OC2CCCC2)[nH]c2c1C(=O)CC(c1ccc(Cl)cc1)C2 (stereo not given),inactive: 87%
16,CCOc1ccc(CNS(=O)(=O)c2c(C(=O)N3CCC(C)CC3)c(C)n(C)c2C)cc1OC,inactive: 71%
17,CC(=O)N1CCc2c(sc3c2c(=O)n(-c2ccccc2)c(=O)n3CC(=O)Nc2cccc(C)c2)C1,inactive: 91%
18,CC(C)N(C(=O)CSc1nc2ccc(Cl)cc2[nH]1)c1ccccc1,inactive: 81%
19,COc1ccccc1CNC(=O)CCCc1nnc2n(CC(C)C)c(=O)c3sccc3n12,inactive: 105%
20,COc1ccccc1CNC(=O)CCC1N=C2c3ccccc3N=C(SCc3cccc(Cl)c3)N2C1=O (stereo not given),inactive: 82%
21,Nc1cccc2c1C(=O)N(CC(=O)O)C2=O,inactive: 104%
22,Nc1nc2cc3c(cc2s1)OCCO3,inactive: 113%
23,CC1CCCN(S(=O)(=O)c2ccc(N)cc2)C1 (stereo not given),inactive: 109%

row,Compound,survival
1,O=C(c1ccc(F)cc1)N1c2nc(-c3ccco3)nn2C2(CCCCC2)[C@@H]2CCCC[C@@H]21,inactive: 82%
2,Cc1cc(=O)[nH]c(SC(C)C(=O)Nc2ccccc2)n1 (stereo not given),inactive: 102%
3,CCOc1ccc(OCC)c(NS(=O)(=O)c2cc(Br)cc3c2N(C(C)=O)C(C)C3)c1 (stereo not given),inactive: 73%
4,COc1ccc(-c2cc3nc(-c4ccc(C)cc4)cc(C(F)(F)F)n3n2)cc1,inactive: 121%
5,CCn1c(=O)c2cc(C(=O)NCCc3cc(OC)ccc3OC)sc2c2ccccc21,inactive: 61%
6,CCCCN(CC)CCNC(=O)c1cc2c(=O)oc3ccc(C)cc3c2s1,inactive: 84%
7,Cc1cccc(Cn2cc(C(=O)Nc3ccc(F)c(C(F)(F)F)c3)ccc2=O)c1,inactive: 128%
8,O=C(NCc1cccc(F)c1)c1ccc(-n2cnc3cccnc32)cc1,inactive: 113%
9,Cc1ccc(-n2c(C)nc3c(cnn3-c3ccccc3C)c2=O)cc1F,inactive: 115%
10,CCc1ccc2oc(-c3ccc(NC(=O)c4ccc(OC)c(Br)c4)cc3)nc2c1,inactive: 75%
11,Cc1ccc(-c2cc(C(F)(F)F)n3nc(C(=O)Nc4ccc(Cl)c(C(F)(F)F)c4)cc3n2)cc1,inactive: 72%
12,Cn1cc(S(=O)(=O)c2ccccc2)c(=O)c2cc(F)c(N3CCN(c4ccccc4)CC3)cc21,inactive: 135%
13,Cc1cccc(-n2c(-c3ccccc3)cn3c4c(=O)[nH]c(=O)n(C)c4nc23)c1,inactive: 160%
14,CCOC(=O)C1CCN(C(c2cc3ccc(OC)cc3n3nnnc23)c2nnnn2C2CCCC2)CC1 (stereo not given),inactive: 105%
15,Cc1cc(C)c(Cn2c3ccccc3c3cnn(CC(=O)N4CCCCCC4)c(=O)c32)c(C)c1,active: 1%
16,Cc1cccc(C)c1OCC(=O)Nc1nc(-c2ccc(Br)cc2)ns1,inactive: 78%
17,O=C(Cn1c(=O)n(-c2cccc(Cl)c2)c(=O)c2sc3ccccc3c21)N1CCCC1,inactive: 71%
18,CCOc1ccc(C(=O)Nc2c(C(=O)Nc3ccccc3F)oc3ccccc23)cc1OCC,inactive: 70%
19,Cc1cc(C)cc(-n2c(C)cc(/C=N/NC(=O)CSc3ncccn3)c2C)c1,inactive: 124%
20,CCc1ccc2nc(N3CCCC3)c(C#N)cc2c1,inactive: 108%
21,CCOC(=O)CN1C(=O)C(O)(CC(=O)c2cc(OC)ccc2OC)c2ccccc21 (stereo not given),inactive: 137%
22,COC(=O)c1cc(C)nc2c1c(=O)nc(SCc1ccccc1F)n2C1CC1,inactive: 77%
23,CC(=O)c1ccc(NC(=O)c2c3c(nc4ccccc24)C(=O)N(C2CCCCC2)C3)cc1,inactive: 82%

row,Compound,survival
1,O=S1(=O)c2ccccc2N(Cc2ccccc2)c2ccccc21,inactive: 69%
2,CCN(CC)CCCNC(=O)C1CCN(S(=O)(=O)CC)CC1,inactive: 124%
3,CC(=O)c1cc2c(cc1NC(=O)c1c(C)nn(-c3ccc(C)cc3)c1-n1cccc1)OCO2,inactive: 82%
4,CC1CCN(Cc2c(O)ccc3c(=O)c(-c4cccc(Cl)c4)c(C(F)(F)F)oc23)CC1,inactive: 65%
5,COc1cccc(N2CCN(C(=O)c3cnn(C(C)(C)C)c3C3CCN(C(=O)OC(C)(C)C)CC3)CC2)c1,inactive: 81%
6,O=C(c1ccc2c(c1)CCN2S(=O)(=O)c1ccccc1)N1CCN(c2ccc(F)cc2)CC1,inactive: 77%
7,O=C(Nc1cccc(Br)c1)N1CCC(CN2CCCCC2)CC1,inactive: 75%
8,Cc1ccc(NC(=O)CSc2nc3ncccc3[nH]2)cc1F,inactive: 128%
9,COc1ccc(OCCn2cc(C(=O)C3CCCCC3)c3ccccc32)cc1,inactive: 31%
10,O=C(NCc1ccc(Cl)cc1)C(=O)Nc1ccc(Br)cc1,inactive: 81%
11,Nc1cc(N)nc(SCC(=O)NCc2ccccc2)n1,inactive: 97%
12,CCc1cccc(NC(=O)Cn2c(=O)n(Cc3ccccc3)c(=O)c3c2c2cc(OC)ccc2n3C)c1,inactive: 82%
13,COc1ccc(C2=NN(C(=O)CCC(=O)O)C(c3ccccc3F)C2)cc1OC (stereo not given),inactive: 99%
14,COC(=O)c1c(NC(=O)CCCOc2ccc(C(C)(C)C)cc2)sc2c1CCC(C)C2 (stereo not given),inactive: 30%
15,COCc1[nH]nc2c1C1(CCC(C(C)(C)C)CC1)C(C#N)=C(N)O2 (stereo not given),inactive: 113%
16,O=C(NCCc1csc(-c2ccc(Cl)cc2)n1)c1cccs1,inactive: 68%
17,CCc1ccccc1NC(=O)Cn1c(-c2nonc2N)nc2ccccc21,inactive: 90%
18,CCN(C(=O)Cn1nc(Cc2cccnc2)c2ccccc2c1=O)c1ccccc1F,inactive: 76%
19,O=S(=O)(Nc1ccc2oc3c(c2c1)CCCC3)c1cc(Cl)ccc1Cl,inactive: 46%
20,COC(=O)c1ccc(-n2nc(C)cc2C)cc1,inactive: 106%
21,CC1CCN(C(=O)CSc2nnc(-c3ccccc3Cl)o2)CC1,inactive: 110%
22,COc1ccc(NC(=O)/C(C#N)=C/c2ccc(OCc3cc(=O)n4nc(C)sc4n3)cc2)cc1,inactive: 86%
23,Cc1cccc(NC(=O)C2CCN(c3nnc(-n4c(C)ccc4C)s3)CC2)c1C,inactive: 132%

row,Compound,survival
1,COc1ccc(-c2nnc(C3CCN(C(=O)c4ccccc4F)CC3)o2)cc1,inactive: 85%
2,Cc1ccc(S(=O)(=O)NCCc2cn3c(C)csc3n2)cc1,inactive: 63%
3,COc1ccc(C(=O)CSc2nc(C)cc(C)n2)cc1C,inactive: 114%
4,COc1ccc(-c2onc(C)c2C)cc1S(=O)(=O)N1c2ccccc2CC1C (stereo not given),inactive: 59%
5,COc1ccc(C(=O)n2cnnc2N)cc1,inactive: 106%
6,COc1ccc(C2Sc3ccccc3NC3=C2C(=O)c2ccccc23)c(OC)c1OC (stereo not given),inactive: 90%
7,Cc1ccc2nc(-c3cc(NC(=O)c4ccc5c(c4)OCCO5)ccc3Cl)oc2c1,inactive: 68%
8,Cc1ccc(N2CC(c3nc4ccccc4n3CCC3CCCCC3)CC2=O)cc1 (stereo not given),inactive: 80%
9,CCOc1ccc(C(CC(=O)O)N2Cc3ccccc3C2=O)cc1OC (stereo not given),inactive: 77%
10,COc1ccc(C2c3c(oc4ccc(F)cc4c3=O)C(=O)N2Cc2ccc3c(c2)OCO3)cc1 (stereo not given),inactive: 77%
11,Cc1cccc(N(C)C(=O)c2cc(S(=O)(=O)N3CCCC3)cn2C)c1,inactive: 83%
12,COC(=O)c1ccccc1NC(=O)NCCc1c(C)nn(C)c1C,inactive: 82%
13,CCc1ccc(CNCc2c(C(=O)O)n(Cc3cccc(F)c3)c3cc(OC)ccc23)cc1,inactive: 63%
14,N#C/C(=C\c1ccccc1)c1nc(-c2cc3cc(Br)ccc3oc2=O)cs1,inactive: 75%
15,Cc1cccc(NC(=O)c2c(NC(=O)C(F)(F)F)sc3c2CCCCC3)c1,active: -3%
16,CCOC(=O)c1cccc(Nc2c3c(nc4ccccc24)CCC3)c1,inactive: 73%
17,O=C1CC(c2ccccc2)Cc2[nH]c(=O)c(C(=O)Nc3cccc(F)c3)cc21 (stereo not given),inactive: 85%
18,O=C(NCCS(=O)(=O)N1CCN(c2ccccc2)CC1)C(c1ccccc1)c1ccccc1,inactive: 90%
19,COc1cccc(N2CCN(S(=O)(=O)c3ccc4[nH]c5c(c4c3)CCCC5)CC2)c1,inactive: 71%
20,O=C(Nc1ccccc1Br)C1CCCN(S(=O)(=O)c2cccc3nsnc23)C1 (stereo not given),inactive: 79%
21,Cn1ccnc1SC(=O)N1c2ccccc2Sc2ccccc21,inactive: 101%

# From PubChem BioAssay AID463173 (ICCB-Longwood Screening Facility, Harvard Medical School, 2010)
